± gives the uncertainty stated by the source. Over roughly 9,900 compounds, “viability index relative to DMSO control” has its median near 1; the lowest 2% begin near 0.85. Some of the results follow.
Tested on: Plasmodium falciparum NF54 stage V gametocytes
Experiment: viability index relative to DMSO control (fraction); higher = less gametocyte killing
Settings: 2.5 µM, incubation time: 72 h
Summary of the method: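 Gametocytes (P. falciparum NF54, stage V) were treated with compound at 2.5 µM for 72 hr at 37°C in low oxygen, in serum-free medium at 0.75% gametocytemia and 1.25% hematocrit. Counts of 20–70 µm2 red particles, taken from one field per well after MitoTracker Red CMXRos with saponin, were divided by the plate mean of solvent-only wells. This ratio is the viability index.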

[1] = library set: Broad Institute DOS

SMILES | viability index [1] | viability index (library set: Broad Institute Blood Stage)
CCc1nc(N2[C@H](C#N)[C@H](c3ccccc3-c3ccccc3C)[C@H]2CO)sc1C | 1.16 ± 0.18 | –
C[C@@H]1CN([C@@H](C)CO)C(=O)c2cc(NC(=O)Nc3ccc(C(F)(F)F)cc3)ccc2O[C@@H](C)CCCCO[C@H]1CN(C)S(=O)(=O)c1ccc(Cl)cc1 | 1.09 ± 0.26 | –
CN(C[C@H]1N[C@@H](CO)[C@@H]1c1ccc(C2=CCCC2)cc1)C(=O)c1cccc(F)c1 | 0.946 ± 0.04 | –
CCNC(=O)c1cc2c(c(-c3cccc(-c4cccnc4)c3)n1)[C@@H](CCO)N(S(C)(=O)=O)C2 | 1.04 ± 0.022 | –
CO[C@H]1CN(C)C(=O)c2ccc(NS(=O)(=O)c3ccc(C)cc3)cc2OC[C@@H](C)N(C)C[C@@H]1C | 1.1 ± 0.075 | –
C[C@@H]1CN([C@H](C)CO)C(=O)c2cccc(NC(=O)c3nc4ccccc4s3)c2O[C@@H]1CN(C)C(=O)Nc1ccc2c(c1)OCO2 | 0.917 ± 0.013 | –
CCCN(C)C[C@@H]1Oc2cc(/C=C/c3ccccc3)ccc2S(=O)(=O)N([C@@H](C)CO)C[C@@H]1C | 0.957 ± 0.068 | –
Cn1cnc(S(=O)(=O)N[C@H]2CC[C@@H](CC(=O)NCC3CCCCC3)O[C@@H]2CO)c1 | 1.03 ± 0.058 | –
C/C=C/c1ccc2c(c1)[C@@H]1[C@@H](CCN1C(=O)C1CCCC1)[C@H](CO)N2 | 1.06 ± 0.045 | –
CO[C@H]1CN(C)C(=O)c2cc(NC(=O)c3ccc(Oc4ccccc4)cc3)ccc2OC[C@H](C)NC[C@@H]1C | 1.02 ± 0.015 | –
O=C(Cc1ccccc1)N1CC(=O)N2[C@H](C1)[C@@H](c1ccc(-c3ccc(F)cc3)cc1)[C@@H]2CO | 1.02 ± 0.05 | –
COC(=O)c1ccc(CN2CC(=O)N3[C@H](CO)[C@@H](c4ccc(-c5cccnc5)cc4)[C@H]3C2)cc1 | 0.986 ± 0.01 | –
COc1ccc(NC(=O)N(C)C[C@H]2Oc3c(NC(=O)CCCCCC(=O)Nc4ccccc4N)cccc3C(=O)N([C@@H](C)CO)C[C@@H]2C)cc1 | 0.991 ± 0.081 | –
CCCNC(=O)C[C@H]1CC[C@@H]2[C@H](COC[C@@H](O)CN2Cc2ccncc2)O1 | 1.03 ± 0.025 | –
CO[C@H](CN(C)Cc1ccc2c(c1)OCO2)[C@@H](C)CN(C(=O)c1ccccc1)[C@@H](C)CO | 1.01 ± 0.05 | –
CCCNC(=O)N1C[C@H]2[C@@H](c3ccccc31)[C@H](CO)N2C(=O)CN1CCOCC1 | 0.923 ± 0.037 | –
COCC#Cc1ccc([C@H]2[C@@H](C#N)N(C(=O)Cc3ccccc3)[C@@H]2CO)cc1 | 1 ± 0.026 | –
CN1C(=O)c2cc(NC(=O)c3ccno3)ccc2OC[C@H]2O[C@@H](CC(=O)Nc3ccccc3)CC[C@@H]21 | 1.09 ± 0.019 | –
C[C@H](CO)N1C[C@H](C)[C@H](CN(C)C(=O)Nc2ccc(C(F)(F)F)cc2)Oc2ccc(NS(=O)(=O)c3ccc(Cl)cc3)cc2CC1=O | 1.009 ± 0.0083 | –
CO[C@@H](C(=O)N(C)C[C@H]1OCc2ccccc2-c2ccccc2C(=O)N([C@H](C)CO)C[C@H]1C)c1ccccc1 | 1.02 ± 0.042 | –
O=C(C[C@H]1C[C@H]2c3cc(NS(=O)(=O)c4ccccc4)ccc3O[C@H]2[C@@H](CO)O1)NCC(F)(F)F | 1.1 ± 0.012 | –
CN1C(=O)c2cc(NC(=O)NCc3ccccc3)ccc2OC[C@H]2O[C@H](CC(=O)NCC3CCCCC3)CC[C@H]21 | 0.979 ± 0.042 | –
COc1cccc(-c2cccc(-c3nc(C(=O)NCc4ccc(Oc5ccccc5)cc4)cc4c3[C@@H](CCO)N(S(=O)C(C)(C)C)C4)c2)c1 (stereo partly drawn) | – | 0.799 ± 0.032

SMILES | viability index [1] | viability index (library set: Broad Institute Blood Stage)
CN1c2ccc(-c3ccccc3)cc2[C@@H]2[C@@H](CCN2C(=O)CC2CC2)[C@@H]1CO | 1.03 ± 0.024 | –
C[C@H](NC(=O)C[C@@H]1C=C[C@@H](NS(=O)(=O)c2cccc(F)c2)[C@H](CO)O1)c1ccccc1 | 1.13 ± 0.078 | –
CO[C@H]1CC[C@@H]2CCOc3c(C#N)cccc3C(=O)N(C)CCCC(=O)N(C)C[C@H]1O2 | 0.967 ± 0.0056 | –
C[C@@H]1CN([C@@H](C)CO)C(=O)c2cc(NC(=O)C3CCCCC3)ccc2O[C@@H]1CN(C)Cc1ccc2c(c1)OCO2 | 0.975 ± 0.098 | –
CCCNC(=O)N1C[C@@]2(C1)CN([C@@H](CO)c1c2c2ccc(OC)cc2n1C)S(C)(=O)=O | 0.987 ± 0.013 | –
CCCNC(=O)N1[C@H](C#N)[C@H](c2ccccc2C2=CCCCC2)[C@@H]1CO | 0.994 ± 0.071 | –
C[C@H](CO)N1C[C@H](C)[C@@H](CN(C)Cc2ccc(Cl)c(Cl)c2)OCCCC[C@H](C)Oc2ccc(NC(=O)c3ccncc3)cc2C1=O | 1.12 ± 0.054 | –
O=C(c1ccccn1)N1CC[C@@H]2[C@H](CO)Nc3ccc(Br)cc3[C@@H]21 | 1.07 ± 0.053 | –
COc1ccc(S(=O)(=O)N(C)C[C@@H]2OCCCC[C@H](C)Oc3ccc(NC(=O)Cc4ccccc4)cc3C(=O)N([C@@H](C)CO)C[C@@H]2C)cc1 | 1.05 ± 0.1 | –
COCC(=O)N1C[C@@]2(C1)CN([C@H](CO)c1[nH]c3cc(OC)ccc3c21)C(=O)Nc1ccccc1F | 1.03 ± 0.071 | –
C/C=C/c1ccc([C@@H]2[C@H]3CN(CCC(F)(F)F)CCCCN3[C@H]2CO)cc1 | 1.07 ± 0.084 | –
COc1ccc(S(=O)(=O)Nc2ccc3c(c2)C(=O)N([C@@H](C)CO)C[C@@H](C)[C@H](CN(C)S(=O)(=O)c2ccc(Cl)cc2)OCCCC[C@H](C)O3)cc1 | 0.9073 ± 0.0032 | –
CCCNC(=O)N(C)C[C@@H]1Oc2cc(C#C[C@@H](C)O)ccc2S(=O)(=O)N([C@H](C)CO)C[C@@H]1C | 1.04 ± 0.021 | –
COc1ccc2c3c([nH]c2c1)[C@H](CO)N(Cc1ccccc1)C[C@]31CCN(CC1)C(=O)NC(C)C | 1.05 ± 0.073 | –
C[C@H]1CN([C@@H](C)CO)C(=O)c2c(c3ccccc3n2C)-c2ccccc2CO[C@H]1CN(C)C(=O)Nc1ccc2c(c1)OCO2 | 1.014 ± 0.0037 | –
O=C(NC[C@H]1N[C@H](CO)[C@H]1c1ccc(-c2ccccc2F)cc1)c1ccccn1 | 1.02 ± 0.07 | –
Cc1noc(C)c1NC(=O)N(C)C[C@@H]1OCc2ccccc2-c2c(n(C)c3ccccc23)C(=O)N([C@H](C)CO)C[C@@H]1C | 0.967 ± 0.058 | –
COc1ccc(-c2ccc([C@H]3[C@H]4CNC[C@@H]3N4S(=O)(=O)c3cn(C)cn3)cc2)cc1 | 1.0563 ± 0.00097 | –
COc1ccc(NC(=O)N[C@@H]2CC[C@@H](CCNC(=O)CN3CCOCC3)O[C@H]2CO)cc1 | 0.981 ± 0.057 | –
CN(C)CC(=O)N1[C@@H](CO)[C@@H](c2ccccc2)C12CN(CCC(F)(F)F)C2 | 1.03 ± 0.092 | –
CN1C(=O)c2cc(NC(=O)c3cnccn3)ccc2OC[C@H]2O[C@H](CC(=O)NCC3CCCCC3)CC[C@@H]21 | 0.959 ± 0.028 | –
COc1cccc(S(=O)(=O)N(C)C[C@H]2OCc3ccccc3-c3c(n(C)c4ccccc34)C(=O)N([C@H](C)CO)C[C@@H]2C)c1 | 0.975 ± 0.027 | –
C/C=C/c1ccc2n(c1=O)C[C@H]1[C@H](CO)[C@@H](C(=O)Nc3ccc(-c4ccccc4)cc3)[C@@H]2N1C(=O)CC.C/C=C\c1ccc2n(c1=O)C[C@H]1[C@H](CO)[C@@H](C(=O)Nc3ccc(-c4ccccc4)cc3)[C@@H]2N1C(=O)CC | 1.03 ± 0.1 | –

SMILES | viability index [1] | viability index (library set: Broad Institute Blood Stage)
CC(C)c1cn(CC[C@@H]2CC[C@H](NS(=O)(=O)c3ccc(F)cc3)[C@H](CO)O2)nn1 | 1.1 ± 0.15 | –
CO[C@H]1CN(C)C(=O)c2ccc(NC(=O)c3cc(C)on3)cc2OC[C@@H](C)NC[C@H]1C | 0.96 ± 0.078 | –
COc1ccc(C[C@H]2CCn3nncc3COC[C@H](CC(C)C)NC2=O)cc1 | 1.02 ± 0.054 | –
COc1cccc(NC(=O)N2C[C@H](O)COC[C@H]3O[C@H](CC(=O)N(C)C)CC[C@@H]32)c1 | 1.01 ± 0.1 | –
Cc1ccccc1-c1ccc([C@@H]2[C@@H](CO)N3C(=O)CN(C(=O)Nc4cccc(F)c4)C[C@H]23)cc1 | 1.034 ± 0.0062 | –
OC[C@@H]1[C@@H](c2ccc(C#CC3(O)CCCC3)cc2)[C@@H]2CN(Cc3cncnc3)CCCCN12 | 1.12 ± 0.1 | –
C[C@H]1CN([C@@H](C)CO)C(=O)c2cc(NS(=O)(=O)c3cccs3)ccc2O[C@@H]1CN(C)S(=O)(=O)c1ccc(Cl)cc1 | 1.01 ± 0.1 | –
COCC(=O)Nc1ccc2c(c1)[C@@H]1C[C@@H](CC(=O)N[C@@H](C)c3ccccc3)O[C@@H](CO)[C@@H]1O2 | 1.1 ± 0.037 | –
C[C@@H]1CN([C@H](C)CO)C(=O)c2cc(NC(=O)NC3CCCCC3)ccc2O[C@H]1CN(C)S(C)(=O)=O | 0.966 ± 0.025 | –
C[C@H](CO)N1C[C@H](C)[C@H](CN(C)Cc2ccncc2)Oc2ccc(NS(=O)(=O)c3ccc(F)cc3)cc2CC1=O | 0.979 ± 0.096 | –
COc1cccc(-c2ccccc2[C@H]2[C@@H](CO)N(C(=O)Nc3ccc(F)cc3)[C@H]2C#N)c1 | 1.09 ± 0.09 | –
O=C(Nc1cc(F)ccc1F)N[C@H]1CC[C@@H](CCn2cc(C3CCCCC3)nn2)O[C@@H]1CO | 1.05 ± 0.021 | –
COCC(=O)Nc1ccc2c(c1)C(=O)N(C)[C@@H]1CC[C@H](CC(=O)NCCCN(C)C)O[C@@H]1CO2 | 1.02 ± 0.041 | –
Cc1noc(C)c1S(=O)(=O)N(C)C[C@@H]1OCc2cn(nn2)CCCC(=O)N([C@@H](C)CO)C[C@H]1C | 1.03 ± 0.014 | –
COCC(=O)Nc1ccc2c(c1)[C@H]1C[C@H](CC(=O)NCc3ccc4c(c3)OCO4)O[C@H](CO)[C@H]1O2 | 1.069 ± 0.0036 | –
O=C(Cc1ccncc1)NCC[C@H]1CC[C@@H](NS(=O)(=O)c2ccccc2Cl)[C@@H](CO)O1 | 1.07 ± 0.03 | –
C[C@H](CO)N1C[C@H](C)[C@@H](CN(C)C(=O)Nc2cccc3ccccc23)Oc2ccc(NS(=O)(=O)c3cn(C)cn3)cc2C1=O | 0.981 ± 0.058 | –
CO[C@H]1CC[C@@H]2CCN(C)C(=O)CCCN(C)C(=O)c3cc(C#N)ccc3OC[C@@H]1O2 | 0.9892 ± 0.0029 | –
N#C[C@H]1[C@@H](c2ccccc2)[C@H](CO)N1C(=O)CCN1CCCCC1 | 1.05 ± 0.049 | –
CCC(=O)N1C[C@]2(CN(Cc3ccc(F)cc3)C2)c2c([C@@H]1CO)n(C)c1cc(OC)ccc21 | 1.04 ± 0.037 | –
CC(C)NC(=O)N1CC(=O)N2[C@H](CO)[C@@H](c3ccc(/C=C/c4ccccc4)cc3)[C@H]2C1 | 1.03 ± 0.043 | –
O=C(C[C@@H]1C[C@@H]2c3cc(NS(=O)(=O)c4ccccc4)ccc3O[C@@H]2[C@H](CO)O1)N1CCOCC1 | 1.025 ± 0.0055 | –

— the supplement of paper PMC4723716
